From PubChem BioAssay AID504333 (National Center for Advancing Translational Sciences (NCATS), 2011)
The whole screen tested about 360,000 compounds, of which about 16,000 (4.4%) were called active. This list was built around the results that the source calls inconclusive (neither active nor inactive); the mix of calls is not that of the screen. The call rests on the fitted dose curve; in most records, active means well fitted inhibition curve with a large enough effect; inconclusive means small, poorly fitted or top-dose-only effect; inactive means no such curve, though single readings can be large or run the other way. Potencies beside an inconclusive call are fits to weak or partial responses and may not hold up.
Further: nearly all actives have a fitted effect of over 60% in size.
Potency means the concentration at half of the fitted maximal effect; tags describe the fitted curve by direction and shape.

What follows are compounds tested against Bromodomain adjacent to zinc finger domain protein 2B (Homo sapiens) (UniProt Q9UIF8) (assay: qHTS Assay for Inhibitors of BAZ2B). Conditions: AlphaScreen BAZ2B-H3K14Ac peptide displacement; series mostly up to 114 µM.
Sequence of UniProt Q9UIF8 (Q9UIF8 whole entry, looked up, the tested form may be a part): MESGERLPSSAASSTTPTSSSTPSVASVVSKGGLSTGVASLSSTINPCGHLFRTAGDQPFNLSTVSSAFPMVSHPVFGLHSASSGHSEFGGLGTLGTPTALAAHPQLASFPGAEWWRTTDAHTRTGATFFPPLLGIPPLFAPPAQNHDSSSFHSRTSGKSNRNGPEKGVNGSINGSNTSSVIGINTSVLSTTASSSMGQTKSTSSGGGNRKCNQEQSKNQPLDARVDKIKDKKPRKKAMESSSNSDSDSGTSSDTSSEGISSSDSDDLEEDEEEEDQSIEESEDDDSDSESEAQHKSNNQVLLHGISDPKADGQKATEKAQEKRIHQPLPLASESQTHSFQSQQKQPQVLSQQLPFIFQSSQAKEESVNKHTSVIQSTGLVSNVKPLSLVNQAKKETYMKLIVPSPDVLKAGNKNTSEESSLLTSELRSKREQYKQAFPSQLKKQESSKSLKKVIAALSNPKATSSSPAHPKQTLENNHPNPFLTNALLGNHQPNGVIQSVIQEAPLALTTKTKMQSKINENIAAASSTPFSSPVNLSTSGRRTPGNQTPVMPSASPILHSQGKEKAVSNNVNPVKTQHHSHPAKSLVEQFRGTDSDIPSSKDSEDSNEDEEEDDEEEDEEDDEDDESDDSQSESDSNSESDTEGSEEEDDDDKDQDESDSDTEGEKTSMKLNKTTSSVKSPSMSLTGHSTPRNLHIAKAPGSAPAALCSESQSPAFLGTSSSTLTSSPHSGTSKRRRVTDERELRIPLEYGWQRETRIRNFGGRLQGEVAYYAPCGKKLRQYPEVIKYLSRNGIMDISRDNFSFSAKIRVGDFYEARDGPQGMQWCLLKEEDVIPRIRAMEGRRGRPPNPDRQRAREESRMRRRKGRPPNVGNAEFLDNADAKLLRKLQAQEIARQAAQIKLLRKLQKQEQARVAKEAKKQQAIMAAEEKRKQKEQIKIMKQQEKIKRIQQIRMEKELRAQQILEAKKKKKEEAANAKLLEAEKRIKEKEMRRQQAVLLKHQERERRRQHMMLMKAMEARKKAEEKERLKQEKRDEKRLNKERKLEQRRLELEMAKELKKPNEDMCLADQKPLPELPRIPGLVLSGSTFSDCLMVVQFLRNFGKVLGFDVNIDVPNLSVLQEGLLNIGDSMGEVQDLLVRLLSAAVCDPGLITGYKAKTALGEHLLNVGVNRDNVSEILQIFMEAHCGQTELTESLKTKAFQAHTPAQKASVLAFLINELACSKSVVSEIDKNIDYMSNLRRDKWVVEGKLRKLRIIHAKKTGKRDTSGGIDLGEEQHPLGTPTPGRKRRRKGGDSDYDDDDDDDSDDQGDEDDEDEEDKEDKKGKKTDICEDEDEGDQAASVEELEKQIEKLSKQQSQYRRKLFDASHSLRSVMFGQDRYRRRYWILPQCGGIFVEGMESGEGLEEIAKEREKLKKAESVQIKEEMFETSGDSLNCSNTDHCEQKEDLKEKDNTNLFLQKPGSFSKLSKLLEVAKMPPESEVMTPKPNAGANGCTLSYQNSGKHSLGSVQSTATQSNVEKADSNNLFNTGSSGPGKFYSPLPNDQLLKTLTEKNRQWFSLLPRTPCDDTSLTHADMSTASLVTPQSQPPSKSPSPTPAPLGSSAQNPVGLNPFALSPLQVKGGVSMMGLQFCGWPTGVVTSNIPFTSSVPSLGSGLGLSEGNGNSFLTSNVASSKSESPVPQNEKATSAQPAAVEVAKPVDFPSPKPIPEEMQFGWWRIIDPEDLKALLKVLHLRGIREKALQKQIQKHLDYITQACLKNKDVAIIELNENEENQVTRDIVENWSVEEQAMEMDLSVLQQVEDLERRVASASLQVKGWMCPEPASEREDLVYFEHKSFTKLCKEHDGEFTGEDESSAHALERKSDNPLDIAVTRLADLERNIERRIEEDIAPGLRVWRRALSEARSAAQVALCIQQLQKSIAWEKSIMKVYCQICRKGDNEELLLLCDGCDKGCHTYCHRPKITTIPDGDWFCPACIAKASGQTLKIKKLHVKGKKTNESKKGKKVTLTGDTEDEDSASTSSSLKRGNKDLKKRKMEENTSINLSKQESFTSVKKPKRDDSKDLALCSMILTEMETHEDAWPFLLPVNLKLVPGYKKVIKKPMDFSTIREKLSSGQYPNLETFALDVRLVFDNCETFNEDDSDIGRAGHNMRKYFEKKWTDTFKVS
In short: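 Multi-concentration screen (max 110 uM) measuring displacement of acetylated histone H3 peptide from BAZ2B by AlphaScreen, using 50 nM protein, 50 nM peptide and 10 ug/mL streptavidin donor plus Ni-chelate acceptor beads.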
With `COc1ccccc1N1CCN(Cc2cc(=O)c(OCC(=O)NC3CCCC3)co2)CC1` the Potency was “inactive”. With `O=C(CN1CCN(C(=O)CNC(=O)c2ccc(N3CCCC3=O)cc2)CC1)Nc1ccccc1Cl` the Potency was “inactive”. In the case of `O=C1NC(c2ccc(-c3ccccc3[N+](=O)[O-])o2)C(C(=O)c2ccc(Cl)cc2)C(O)(C(F)(F)F)N1` (stereo not given), the Potency is reported as inconclusive: 50.1 µM [inhibitor, partial curve]. `Oc1c(C(c2ccc(Br)cc2)N2CCOCC2)sc2nc(-c3ccco3)nn12` (stereo not given) was tested, and the Potency was inconclusive: 89.1 µM [inhibitor, single point]. For `Cc1cc(Cl)ccc1OCC(=O)NCCCn1ccnc1`, the Potency was inconclusive: 79.4 µM [inhibitor, single point]. `C=CCc1ccccc1OCC(=O)OCCNC(=O)c1cccnc1` was tested, and the Potency was inconclusive: 89.1 µM [inhibitor, single point]. In the case of `NS(=O)(=O)c1ccc(NN=C2CCCCC2)c([N+](=O)[O-])c1`, the Potency is reported as inconclusive: 89.1 µM [inhibitor, single point]. `Cn1c(SCC(=O)N/N=C/c2ccc([N+](=O)[O-])s2)nnc1-c1ccccc1` was tested, and the Potency was inconclusive: 44.7 µM [inhibitor, partial curve]. With `O=C(Cn1cc(C(=O)C(F)(F)F)c2cc(Br)ccc21)N1CCOCC1` the Potency was “inactive”. For `CCOc1ccc(N2CC(C(=O)NCC(=O)Nc3ccc(F)c(F)c3F)CC2=O)cc1` (stereo not given), the Potency was “inactive”. With `Cc1ccc(/C(O)=C2\C(=O)C(=O)N(CC(C)O)C2c2ccccn2)cc1` (stereo not given) the Potency was “inactive”. In the case of `Cc1nn(Cc2ccccc2)c2sc(C(=O)N3CCN(Cc4ccc5c(c4)OCO5)CC3)cc12`, the Potency is reported as inconclusive: 28.2 µM [inhibitor, partial curve]. In the case of `O=C(COc1ccc(Cl)cc1Cl)NC(=S)Nc1ccccc1C(=O)O`, the Potency is reported as inconclusive: 79.4 µM [inhibitor, single point]. In the case of `COC(=O)c1c(C(=O)OC)c2cccc3cc(-c4ccccc4)c4ccc1c4n32`, the Potency is reported as active: 2.51 µM. `Cc1csc(=Nc2ccccc2)n1CCO` was tested, and the Potency was inconclusive: 79.4 µM [inhibitor, single point]. In the case of `CC(=O)N1C(=O)/C(=C2\SC(=S)N(NS(=O)(=O)c3ccc(C)cc3)C2=O)c2ccccc21`, the Potency is reported as inconclusive: 10 µM [inhibitor, full curve]. With `CCOC(=O)C1CCCCN1Cc1cccc(OC)c1OC` (stereo not given) the Potency was inconclusive: 35.5 µM [inhibitor, single point]. With `N#C/C(=C\c1ccc(-c2ccc(C(=O)O)cc2)o1)C(=O)Nc1ccc(F)cc1` the Potency was inconclusive: 89.1 µM [inhibitor, single point]. `COc1ccc(CNc2ccc(C)cc2)cc1Br` was tested, and the Potency was active: 50.1 µM. In the case of `COc1ccc(CNS(=O)(=O)c2cc3c(cc2Cl)NC(=O)CO3)cc1`, the Potency is reported as inconclusive: 44.7 µM [inhibitor, partial curve]. In the case of `CC(C)(C)NC(=O)C(c1cccs1)N(C(=O)c1csnn1)c1cccc(F)c1` (stereo not given), the Potency is reported as inconclusive: 89.1 µM [inhibitor, single point]. In the case of `Cc1ccc(-c2nc3cccc(C)n3c2Nc2ccc3c(c2)OCO3)o1`, the Potency is reported as active: 28.2 µM. For `O=C1c2oc3ccccc3c(=O)c2C(c2cccc(Br)c2)N1Cc1ccco1` (stereo not given), the Potency was inconclusive: 79.4 µM [inhibitor, partial curve]. In the case of `N#Cc1ccc(NC(=O)CCc2ccc(S(=O)(=O)N3CCOCC3)cc2)cc1`, the Potency is reported as inconclusive: 4.47 µM [inhibitor, full curve]. In the case of `CN1C(=O)/C(=C/c2ccccc2OCc2ccc(C(=O)O)cc2)NC1=S`, the Potency is reported as inconclusive: 79.4 µM [inhibitor, single point]. With `Cc1cc(NC(=O)CCN2CCC(C)CC2)ccc1Br` the Potency was “inactive”. In the case of `COc1ccc(NS(=O)(=O)c2ccc(F)c(Cl)c2)cn1`, the Potency is reported as “inactive”. `CCN(CC)c1ccc(NC(=O)Cn2nc3c(cc2=O)CCCC3)c(C)c1` was tested, and the Potency was “inactive”. With `CCc1c(C)sc(NC(=O)c2cc3nc(-c4ccc(OC)cc4)cc(C(F)(F)F)n3n2)c1C(=O)OC` the Potency was “inactive”. In the case of `Cc1ccccc1NC(=O)CSc1nc(-c2cccs2)nc2cc(=O)[nH]n12`, the Potency is reported as active: 50.1 µM. In the case of `O=C1CCCC(O)=C1N=Nc1ccc(C(=O)O)cc1`, the Potency is reported as active: 22.4 µM. With `N#Cc1ccccc1OCCOCCNC1CCCC1` the Potency was inconclusive: 89.1 µM [inhibitor, single point]. `COc1ccccc1/C=C/CN1CCOCC1` was tested, and the Potency was inconclusive: 89.1 µM [inhibitor, single point]. For `Cc1ccc(S(=O)(=O)/N=C2/C=C(Sc3ncn[nH]3)C(=O)c3ccccc32)cc1`, the Potency was active: 44.7 µM. With `Cc1ccc(NC(=O)/C(C#N)=C(\N)C(Cl)(Cl)Cl)nc1` the Potency was active: 56.2 µM. With `COc1ccc(CNC(=O)CCNS(=O)(=O)c2ccc(C)cc2)cc1` the Potency was inconclusive: 0.631 µM [inhibitor, full curve, poor fit]. In the case of `N#Cc1nc(/C=C/c2ccc(F)cc2)oc1N1CCCCCC1`, the Potency is reported as inconclusive: 6.31 µM [inhibitor, full curve, poor fit]. For `COc1cccc(-c2nn[nH]n2)c1O`, the Potency was active: 56.2 µM. For `COc1ccc(-c2cc(OC(=O)c3cccc(Cl)c3)c3c(C)oc(C)c3c(=O)c2)cc1OC`, the Potency was active: 50.1 µM. In the case of `O=c1[nH][nH]c2c(N=Cc3ccccc3O)ccc(F)c12`, the Potency is reported as active: 10 µM. With `Cc1cc(NC(=O)COc2ccc(C)c(C)c2)no1` the Potency was “inactive”. For `O=C(Nc1ccc(NC(=O)c2cccs2)cc1)c1ccc(Br)o1`, the Potency was inconclusive: 89.1 µM [inhibitor, single point]. In the case of `Cc1ccc(C(=O)c2c(NC(=O)c3ccccc3)sc(C)c2C)cc1`, the Potency is reported as inconclusive: 31.6 µM [inhibitor, partial curve]. With `COc1ccc(C(=O)OCC(=O)Nc2ccc3[nH]c(=O)[nH]c3c2)cc1` the Potency was “inactive”. `COc1ccc(NC(=O)c2cc(S(=O)(=O)N3CCCC(C)C3)cn2C)c(OC)c1` (stereo not given) was tested, and the Potency was inconclusive: 79.4 µM [inhibitor, single point]. With `COc1ccc(Cn2nnc3c(=O)[nH]c(C4CCN(S(=O)(=O)c5ccc(C)cc5)CC4)nc32)cc1` the Potency was “inactive”. In the case of `COc1ccc(CCOC(=O)c2ccc(N)c([N+](=O)[O-])c2)cc1`, the Potency is reported as inconclusive: 25.1 µM [inhibitor, full curve]. In the case of `S=C(Nc1ccc(Br)cc1Cl)Nn1cnnc1`, the Potency is reported as inconclusive: 70.8 µM [inhibitor, partial curve]. `Cc1cc(Cl)ccc1NS(=O)(=O)c1c(C(=O)N2CCCCCC2)c(C)n(C)c1C` was tested, and the Potency was inconclusive: 89.1 µM [inhibitor, single point]. With `Cc1cccc(N2CCN(Cc3nc(-c4cccc(Oc5ccccc5)c4)oc3C)CC2)n1` the Potency was inconclusive: 44.7 µM [inhibitor, partial curve]. With `COc1ccc(NC(=O)C2CCCN2C(=O)Nc2ccc(OC)cc2)cc1` (stereo not given) the Potency was “inactive”. `COc1ccccc1OCC(=O)Nc1cc(S(=O)(=O)N2CCCCC2)ccc1N1CCCCC1` was tested, and the Potency was active: 79.4 µM. For `O=C(Cn1cc(SCc2ccc(Cl)cc2)c2ccccc21)N1CCOCC1`, the Potency was inconclusive: 70.8 µM [inhibitor, single point]. `COC(=O)c1c(-c2ccccc2)c[nH]c1C` was tested, and the Potency was inconclusive: 79.4 µM [inhibitor, single point]. For `CSc1nnc2c3cc(F)ccc3n(C)c2n1`, the Potency was inconclusive: 89.1 µM [inhibitor, single point]. For `CCN(C(=O)CSc1nnc(Nc2cccc(C)c2C)s1)C1CCS(=O)(=O)C1` (stereo not given), the Potency was “inactive”. In the case of `Cc1nn(C(C)C(=O)NC2C(=O)N3C(C(=O)O)=C(CSc4nnnn4C)CSC23)cc1Cl` (stereo not given), the Potency is reported as inconclusive: 89.1 µM [inhibitor, single point]. For `Cc1ccccc1CNS(=O)(=O)c1c(C(=O)N2CCCCC2)c(C)n(C)c1C`, the Potency was “inactive”. In the case of `CN(C)c1ccc(Nc2ccc([N+](=O)[O-])cn2)cc1`, the Potency is reported as inconclusive: 28.2 µM [inhibitor, full curve]. With `COc1cc(CN2CCN(S(=O)(=O)c3ccccc3)CC2)cc(OC)c1OC` the Potency was inconclusive: 89.1 µM [inhibitor, single point]. For `COc1ccc(/C=C2\SC(=S)N(NS(=O)(=O)c3ccc(C)cc3)C2=O)c(OC)c1`, the Potency was inconclusive: 79.4 µM [inhibitor, single point]. In the case of `CC(C)(Cc1ccc(O)cc1)NC(=O)CC(=O)N=Nc1c(O)[nH]c2cc(Br)ccc12`, the Potency is reported as inconclusive: 70.8 µM [inhibitor, partial curve]. With `Cc1nc(NC(=O)CC(C)C)sc1-c1csc(Nc2ccc(Cl)cc2Cl)n1` the Potency was inconclusive: 79.4 µM [inhibitor, single point]. `FC(F)(F)c1cccc(Nc2nc3nonc3nc2Nc2ccc(Cl)cc2)c1` was tested, and the Potency was inconclusive: 35.5 µM [inhibitor, full curve, poor fit]. For `O=c1[nH][nH]c(-c2ccccc2O)c1C(C[N+](=O)[O-])c1ccc(Cl)cc1Cl` (stereo not given), the Potency was inconclusive: 28.2 µM [inhibitor, full curve, poor fit]. With `COc1cc(/C=N/N(C)S(=O)(=O)c2ccc(C)cc2)cc([N+](=O)[O-])c1O` the Potency was inconclusive: 56.2 µM [inhibitor, partial curve]. With `Cc1ccc(NCCC(=O)c2cccc([N+](=O)[O-])c2)c(C)c1` the Potency was active: 28.2 µM. In the case of `CSCC[C@H](NC(=O)N1CCn2c1nc1ccccc12)C(=O)N[C@H](Cc1ccccc1)C(=O)O`, the Potency is reported as inconclusive: 44.7 µM [inhibitor, partial curve]. In the case of `O=C(CNCCc1ccc(Cl)cc1Cl)NCc1ccco1`, the Potency is reported as “inactive”. With `CCN(CC)CCC(=O)Nc1cccc2c1C(=O)c1ccccc1C2=O` the Potency was inconclusive: 44.7 µM [inhibitor, partial curve].
